Assay results reported in publication PMC6919601, “Identification of Plasmodium dipeptidyl aminopeptidase allosteric inhibitors by high throughput screening” (PLoS ONE, 2019).
Among all 110,000 compounds or so, about 230 (0.21%) showed an effect of 50% or more. Some of the results follow.

biological target: DPAP1 (Plasmodium falciparum, UniProt Q8IIJ9); assay: primary screen, percent inhibition; read by cleavage of a fluorogenic dipeptide substrate; higher = more effect of the substance; parameters: species or system P. falciparum D10 trophozoite lysates; single well
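Also: 30 min substrate incubation versus DMSO and 10 µM JCP410 controls.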

DPAP1, sequence (Q8IIJ9 whole entry, looked up): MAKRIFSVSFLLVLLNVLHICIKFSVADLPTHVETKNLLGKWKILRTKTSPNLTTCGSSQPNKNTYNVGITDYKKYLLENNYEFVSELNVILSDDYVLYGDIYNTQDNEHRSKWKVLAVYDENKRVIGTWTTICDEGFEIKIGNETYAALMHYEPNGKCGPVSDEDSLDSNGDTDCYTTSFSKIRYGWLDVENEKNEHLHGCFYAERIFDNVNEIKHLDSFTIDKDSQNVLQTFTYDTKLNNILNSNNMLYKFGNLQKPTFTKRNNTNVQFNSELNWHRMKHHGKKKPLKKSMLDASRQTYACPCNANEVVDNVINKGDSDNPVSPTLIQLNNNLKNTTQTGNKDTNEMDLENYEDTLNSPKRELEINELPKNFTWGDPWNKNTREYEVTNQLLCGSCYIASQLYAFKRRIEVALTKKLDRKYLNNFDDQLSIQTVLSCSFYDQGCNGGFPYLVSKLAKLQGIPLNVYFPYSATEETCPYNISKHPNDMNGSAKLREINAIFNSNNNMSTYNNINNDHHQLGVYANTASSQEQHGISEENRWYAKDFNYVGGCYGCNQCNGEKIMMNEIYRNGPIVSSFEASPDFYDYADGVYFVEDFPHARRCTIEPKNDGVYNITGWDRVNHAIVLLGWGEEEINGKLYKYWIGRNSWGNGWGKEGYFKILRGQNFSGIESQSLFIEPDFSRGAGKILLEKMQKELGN

Compound	% Inhibition @ 10 uM
O=C(C1=CCN(S(=O)(=O)c2ccc(F)cc2)CC1)N1CCOCC1	23.1%
O=C1C(=O)N2C(=C1C(=O)N1CCOCC1)c1ccccc1CC21CCCC1	0.475%
Cc1cc(Br)cc(C)c1-c1cc(-c2ccccc2)[nH]n1	-1.69%
CCN(CC)C(CNS(=O)(=O)c1ccc(Cl)cc1)c1ccccc1 (centres unmarked)	1.12%
CCOc1ccc(/C=C2\SC(=O)N(CC(=O)N3CCOCC3)C2=O)cc1OCC	4.94%
CS(=O)(=O)N(CC(=O)Nc1cc(C(F)(F)F)ccc1Cl)C1CCCCC1	3.58%
N#Cc1cc2c(=O)n3ccccc3nc2n(CC2CCCO2)c1=O (centres unmarked)	1.12%
COCCCNC(=O)CSc1nc2ccc(Br)cc2c2nc3ccccc3n12	0.569%
C=CCNc1nc(OC)nc(OC)n1	2.13%
Cc1nc2ncnn2c(C)c1CCC(=O)N1CCCC1	7.61%
Cc1ccc2c(c1)c1nnc(S)nc1n2Cc1ccccc1	3.73%
NC(c1ccccc1)(c1ccc(Cl)cc1)c1ncc[nH]1 (centres unmarked)	-7.09%
Cc1ccc(NC(=O)CSc2nc(N)cc(N)n2)cc1Cl	-5.13%
CN1CCN(C2CCC(c3ccccc3)CC2)CC1 (centres unmarked)	-1.81%
CC(C)NC(=O)/C(=C/c1cn(S(=O)(=O)N(C)C)c2ccccc12)NC(=O)c1ccccc1	-1.74%
CC(C)c1ccc(CN(C)C2CCN(C)CC2)cc1	-1.77%
CSc1nc2ccsc2c(=O)n1Cc1ccccc1F	6.5%
CCc1cc2c(cc(C(=O)NCc3ccccc3C)n2C)s1	-4.85%
CCCN(CCC)CCNC(=O)c1cn(C)c(=O)c2ccccc12	1.91%
O=C(Cn1ncc2c1-c1ccccc1OC2)NCCc1ccsc1	-2.42%
CCOC(=O)c1c(C)[nH]c(C)c1S(=O)(=O)NCCc1ccc(OC)c(OC)c1	0.708%
N#CC1=C(N)Oc2cc(O)c(Cl)cc2C1c1ccccc1Cl (centres unmarked)	-6.18%
CSc1nc2sc3c(c2c2nnc(C)n12)CCC(C(C)(C)C)C3 (centres unmarked)	-7.23%
c1ccc(-c2cn3c(n2)SCC3)cc1	-3.98%
CCOC(=O)c1c(C)[nH]c(C)c1S(=O)(=O)NCc1cc(OC)c(OC)c(OC)c1	0.708%
Cc1cc(O)n2nc(Cc3ccccc3)c(-c3ccc(Cl)cc3)c2n1	1.72%

Compound	% Inhibition @ 10 uM
CN1CCN(S(=O)(=O)c2ccc(-c3cc(C(F)(F)F)no3)s2)CC1	3.08%
O=C(O)c1ccccc1C(=O)Nc1ccc(-c2ccc([N+](=O)[O-])cc2)cc1	-4.31%
COc1ccc(NC(=O)C2=C(C)NC(=O)NC2c2ccc(OC)c(OC)c2)cc1 (centres unmarked)	7.42%
O=C(Nc1ccc(Br)cc1)c1cc2nc(C(F)F)cc(C(F)F)n2n1	-1.04%
Cc1ccc(OCC(=O)Nc2cccc(C(F)(F)F)c2)cc1C	2.53%
Cc1c(C(=O)N2CCN(C)CC2)sc2ncnc(N3CCN(c4ccccn4)CC3)c12	-2.87%
N#CCCN1CCN(C2=NC(=O)/C(=C\c3ccc(-c4ccc(Cl)cc4)o3)S2)CC1	-2.8%
COc1cc(C(=O)Nc2ccc(Cl)cc2F)cc(OC)c1OC	2.48%
COCCCn1c(=O)c2sccc2n2c(CCCC(=O)N3CCC(C(N)=O)CC3)nnc12	-10.3%
CCN(c1ccccc1C)S(=O)(=O)c1ccc(C)cc1	-7.78%
Cc1ccc2nc(-c3ccc(N4C(=O)CC(N5CCCC(C(N)=O)C5)C4=O)cc3)sc2c1 (centres unmarked)	6.17%
CCOc1cc(C(=O)Nc2cc(=O)n(C)c(=O)n2C)cc(OCC)c1OCC	5.08%
CCc1[nH]nc2c1C1(CCN(C(C)=O)CC1)C(C#N)=C(N)O2	2.51%
CCOC(=O)c1c(-c2ccc(F)cc2)csc1NC(=O)c1c(-c2ccccc2)noc1C	0.64%
CC1CCN(S(=O)(=O)c2ccc(C(=O)Nc3nc4c(s3)Cc3ccccc3-4)cc2)CC1	-3.21%
COc1ncnc(-c2ccccc2)c1-c1ccccc1	7.39%
COc1ccc(C(=O)N2CCN(CCCc3ccccc3)CC2)cc1	-3.87%
Cc1nc2scc(C)n2c(=O)c1S(=O)(=O)N1CCN(C)CC1	0.947%
CCCC(C)NS(=O)(=O)c1ccc(NC(C)=O)cc1 (centres unmarked)	-4.65%
O=C(O)c1cc(NC(=O)c2cccc([N+](=O)[O-])c2)cc(C(=O)O)c1	-5.36%
O=C(/N=C1/SC2CS(=O)(=O)CC2N1c1ccccc1)c1ccc(Br)cc1 (centres unmarked)	-0.425%
COCC(=O)NC1CCN(Cc2ccccc2)CC1	-3.77%
CCN(CC)S(=O)(=O)c1cccc(C(=O)Nc2ccc(C(=O)O)cc2)c1	-1.74%
COc1cccc2c(C)nc(NC3=NCN(CCc4ccccc4)CN3)nc12	0.0539%
CCCOc1ccc(C(=O)Nc2ccc(N3CCN(S(C)(=O)=O)CC3)cc2)cc1	1.19%
O=C(NCCc1cccs1)c1ccc(CN2CC(=O)N3CCCCC3C2=O)cc1 (centres unmarked)	4.67%

Compound	% Inhibition @ 10 uM
N#Cc1ccccc1CN1C(=O)S/C(=C/c2ccc(OCC(=O)O)c(Br)c2)C1=O	4.06%
Cc1nc(-c2ccccc2)nc(-c2ccccc2)n1	-2.59%
N=C1/C(=C\c2ccc(OCc3ccccc3)c(Cl)c2)C(=O)N=C2SC(N3CCOCC3)=NN12	-5.51%
O=[N+]([O-])c1ccc(CN2CCSCC2)o1	3.1%
C1=NCCn2cccc21	-4.61%
COc1cc(OC)cc(C(=O)N(CCCN(C)C)c2nc3c(OC)cccc3s2)c1	-0.0255%
O=C1C2CCCCC2C(=O)N1CCc1c[nH]c2ccccc12 (centres unmarked)	4.76%
Cc1c(C=O)c(C(=O)O)c(C)n1C	6.13%
CCCCN(C)CCCNC(=O)C1CCN(Cc2nc(-c3ccc(Cl)cc3)oc2C)CC1	-8.65%
Cc1ccc(OCCCCCCc2c(C)n[nH]c2C)cc1C	-0.351%
O=C(CCS(=O)(=O)c1ccc(Br)cc1)NC12CC3CC(CC(C3)C1)C2	-2.5%
O=C(C(Cc1ccccc1)N1C(=O)C2C3C=CC(C3)C2C1=O)N1CCOCC1 (centres unmarked)	-0.551%
Cc1cc(C)n(-c2ncc(-c3ccc([N+](=O)[O-])cc3)cn2)n1	4.22%
CCOC(=O)C1=C(CC)OC(N)=C(C#N)C1c1cccc(Br)c1 (centres unmarked)	3.1%
CC(CCc1ccccc1)NC(=O)c1[nH]nc2c1CCCC2 (centres unmarked)	3.24%
CCN1CCN(Cc2c(NC(=O)c3ccccc3F)sc(C)c2C)CC1	-1.04%
CC1CCCCN1CCNC(=O)Cn1ncc2c3ccccc3n(Cc3ccccc3)c2c1=O (centres unmarked)	14.6%
CC(=O)Nc1ccc(NC(=O)c2c([N+](=O)[O-])cnn2C)cc1	-4.43%
Cc1ccc2c(c1)cc1c(=O)n(Cc3ccccc3Cl)ncn12	4.36%
OC1(c2cccs2)C[N+](c2ccccc2)=C2SCCCN21 (centres unmarked)	3.36%
O=C1C=C(NCc2ccc3c(c2)OCO3)CC(c2ccccc2)C1 (centres unmarked)	-1.26%
COc1ccc(/C=C(/NC(=O)c2ccc(C)cc2)C(=O)N2CCCCC2)cc1OC	-3.06%
Cn1c(=O)c2c(nc(S)n2Cc2ccccc2)n(C)c1=O	-2.89%
Cc1onc(-c2ccccc2)c1C(=O)Nc1ccccc1F	5.53%
Cc1cc(C)c2nc(N3CCCC(C(=O)NCCc4ccccc4)C3)sc2c1 (centres unmarked)	-3.35%
Cc1ccc(Nc2nc3cc(C)ccc3cc2C)c(C)c1	2.22%

Compound	% Inhibition @ 10 uM
C#CCOc1ccc2c(c1)c(C(C)=O)c(C)n2Cc1ccccc1	2.17%
Clc1ccc(Nc2nc(-c3ccccn3)cs2)cc1	4.26%
CCCC(C#CCN1CCCCC1)OC(C)=O (centres unmarked)	-0.342%
O=C1c2ccccc2C(=O)N1CN1CCCCCC1	2.76%
CC(CCCC(C)(C)O)NC1CC2CCC1C2 (centres unmarked)	1.57%
O=C(NC1CCCCC1)N1CCN(c2ccc(C(F)(F)F)cn2)CC1	-2.28%
O=C1NC(=S)N(c2ccc(Cl)cc2)C(=O)/C1=C/c1ccc(O)cc1	-5.23%
COc1ccc(OC)c(/C=C(\C#N)c2nc3ccccc3[nH]2)c1	-4.4%
CC1CC(C)CN(CCCNC(=O)Cn2ncc3c4ccccc4n(C)c3c2=O)C1 (centres unmarked)	2.99%
CS(=O)(=O)N(CC(=O)NCCSc1ccccc1)c1ccccc1Cl	-8.92%
O=C(CCS(=O)(=O)Cc1cccc(Cl)c1)NCCc1ccccc1	2.18%
Cc1ccc(S(=O)(=O)c2cnc3c(F)cc(F)cc3c2O)cc1	-1.7%
Cc1ccc(/N=C2\SC(C(=O)Nc3ccccc3F)CC(=O)N2C)cc1C (centres unmarked)	-3.25%
COc1ccc(CNS(=O)(=O)c2ccc3nc(O)ccc3c2)cc1	1.36%
COc1ccc(-c2nc3n(n2)C(c2cc(OC)ccc2OC)C2=C(O)CCCC2=N3)cc1 (centres unmarked)	0.275%
CC(=O)c1cccc(NC(=O)CCCC(=O)Nc2cccc(C(C)=O)c2)c1	4.3%
COc1ccccc1C(=O)Nc1cccc(F)c1	-5.29%
CCC(C(=O)N1CCN(c2cccc(Cl)c2)CC1)c1ccccc1 (centres unmarked)	-4.72%
O=C(Nc1ccccc1O)c1ccc(Cl)c(S(=O)(=O)N2CCOCC2)c1	-1.02%
O=C(c1cc2ccccc2oc1=O)N(Cc1ccccc1)c1ccccn1	-8.82%
CCOC(=O)C1CCCCN1Cc1ccc(Br)s1 (centres unmarked)	-0.294%
CCc1ccc(/C=C2/SC(N3CCCCC3)=NC2=O)cc1	1.57%
CCOC(=O)c1ccc(/C=C/c2ccccn2)cc1	-1.11%
